B1: TPR 5TU (parent)
chain: GGAUCUUCUCGAUCUAACAAAAAAGACAAAUCUGCCACAAAGCUUGAGAGCAUCUUCGGAUGCAGAGGCGGCAGCCUUCGGUGGCGCGAUAGCGCCAACGUUCUCAACUAUGACACGCAAAACGCGUGCUCCGUUGAAUGGAGUUUAUCAUG

Variants at the floor of the assay are shown more often than the library holds them.

This series covers variants of B1. The experiment in a line: polymerase ribozyme fitness, log enrichment relative to wild type (log ratio); higher = more active; in vitro selection for triplet polymerase activity. The method, boiled down: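 PCR was used to build mutant libraries for each subunit of a heterodimeric triplet polymerase ribozyme, which were then transcribed. A single in vitro selection round, in triplicate, used a frozen incubation at −7 °C and recovered extended constructs by gel excision, streptavidin beads and RT-PCR. Fitness is the logarithm of genotype enrichment relative to wild-type enrichment, averaged over replicates with inverse-variance weights. The logarithm is base 2, and after Illumina sequencing only genotypes with ≥10 input reads and ≥1 read per output were kept.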
For A37U C103G A115U G128U, the “polymerase ribozyme fitness (log ratio)” value was no more than -4.2.

Regarding A37C G92U, the “polymerase ribozyme fitness (log ratio)” value is -0.276.

Consider A37U A60G A91G G143C, for which the “polymerase ribozyme fitness (log ratio)” value is no more than -4.2.

With A37G A49G A60C G62C G94U U102A, the “polymerase ribozyme fitness (log ratio)” value was no more than -4.2.

Consider A37G A60C C72A C95U A120G G126C, for which the “polymerase ribozyme fitness (log ratio)” value is no more than -4.2.

For the variant C38A A49U C93A C96U U101G A138C, the “polymerase ribozyme fitness (log ratio)” value is no more than -4.2.

With C38A G59A G86A C99G, the “polymerase ribozyme fitness (log ratio)” value was no more than -4.2.

On to C38A A39C A40G A60G G65C C87A G94U C99G, for which the “polymerase ribozyme fitness (log ratio)” value was no more than -4.2.

In the case of A37U G50A U61A A89C U109G, the “polymerase ribozyme fitness (log ratio)” value is no more than -4.2.

Consider A37G A52C A91U A97G U102C U135C, for which the “polymerase ribozyme fitness (log ratio)” value is no more than -4.2.

Consider A37C G83C C103A C131G, for which the “polymerase ribozyme fitness (log ratio)” value is no more than -4.2.

C38A C85U A107G G124C: the “polymerase ribozyme fitness (log ratio)” value is no more than -4.2.

Take A37C U56G G68U U90A C95U C105A G117U: the “polymerase ribozyme fitness (log ratio)” value is no more than -4.2.

In the case of A37G A52G C95G U127C, the “polymerase ribozyme fitness (log ratio)” value was no more than -4.2.

Regarding A37U G48A U56A U77G G92A G126A A142G G143C U151A, the “polymerase ribozyme fitness (log ratio)” value was no more than -4.2.

Regarding C38A G83U C96G U144A, the “polymerase ribozyme fitness (log ratio)” value was -0.619.

In the case of A37G G48C C93A, the “polymerase ribozyme fitness (log ratio)” value is no more than -4.2.

Consider A37G C87A, for which the “polymerase ribozyme fitness (log ratio)” value is no more than -4.2.

For the variant A37C G48U A106C G124C U144G, the “polymerase ribozyme fitness (log ratio)” value was no more than -4.2.

A37U A52C C96G A113U U135C: the “polymerase ribozyme fitness (log ratio)” value is no more than -4.2.

With C38A A73U G80C G81C C95G G117A G133U G141C, the “polymerase ribozyme fitness (log ratio)” value was no more than -4.2.

In the case of A37G G59U G86A C99A U130C G141U, the “polymerase ribozyme fitness (log ratio)” value is no more than -4.2.

Turning to A37U C54U C95G U134C G136C G141C, the “polymerase ribozyme fitness (log ratio)” value is no more than -4.2.

As for A37G A49U G59A A60C C95A, the “polymerase ribozyme fitness (log ratio)” value was no more than -4.2.

In the case of A37U A60G C76U G88A, the “polymerase ribozyme fitness (log ratio)” value was no more than -4.2.

On to C38A A49C, for which the “polymerase ribozyme fitness (log ratio)” value is no more than -4.2.

On to A37U A49C, for which the “polymerase ribozyme fitness (log ratio)” value was no more than -4.2.

In the case of A37C G86U A120U U146G, the “polymerase ribozyme fitness (log ratio)” value was -3.9.

In the case of A37U A52G G62C C76A G124U, the “polymerase ribozyme fitness (log ratio)” value was no more than -4.2.

In the case of A37U A66U C96G, the “polymerase ribozyme fitness (log ratio)” value was no more than -4.2.

For the variant A37C G68C U135G, the “polymerase ribozyme fitness (log ratio)” value is no more than -4.2.

A37G C54A C93G A142C A147U: the “polymerase ribozyme fitness (log ratio)” value is no more than -4.2.

As to C38A C85U C125A G126U, the “polymerase ribozyme fitness (log ratio)” value is no more than -4.2.

For the variant A37C G48A U55A C85U C93G C108A, the “polymerase ribozyme fitness (log ratio)” value was no more than -4.2.

Take A37G G68A: the “polymerase ribozyme fitness (log ratio)” value was no more than -4.2.

Consider C38A A97C A110G A119G G136A A142G U148A, for which the “polymerase ribozyme fitness (log ratio)” value was no more than -4.2.

Consider C38A A49C C76G C87A G141C, for which the “polymerase ribozyme fitness (log ratio)” value was no more than -4.2.

With A37C U56A, the “polymerase ribozyme fitness (log ratio)” value was -0.806.

In the case of A37G A49C A73U G81A G86A G140A, the “polymerase ribozyme fitness (log ratio)” value is no more than -4.2.

As to A37U C43U C75G G88A C114U, the “polymerase ribozyme fitness (log ratio)” value was no more than -4.2.

In the case of A37C U90A C93A, the “polymerase ribozyme fitness (log ratio)” value is no more than -4.2.

In the case of A37G U90A G94A C103U A107G C125G G141A, the “polymerase ribozyme fitness (log ratio)” value was no more than -4.2.

On to A37G C57G A97G, for which the “polymerase ribozyme fitness (log ratio)” value is -2.57.

Regarding A37G A49U C79A C99U G124A A142U, the “polymerase ribozyme fitness (log ratio)” value is no more than -4.2.

A37G G86U U101G A115G G136U G141C: the “polymerase ribozyme fitness (log ratio)” value was no more than -4.2.

A37G G81C A142C: the “polymerase ribozyme fitness (log ratio)” value is -3.82.

A37U G67U G92C C96G A110U A150G: the “polymerase ribozyme fitness (log ratio)” value is no more than -4.2.

For the variant C38A G58U U77C U78A C96A, the “polymerase ribozyme fitness (log ratio)” value was no more than -4.2.

As to A37G A60U G81A A97C A137G, the “polymerase ribozyme fitness (log ratio)” value is -4.19.

In the case of A37U U146G, the “polymerase ribozyme fitness (log ratio)” value is -2.19.

Take A37C U61A G81U G86A C93A U134C G143A U145C: the “polymerase ribozyme fitness (log ratio)” value is no more than -4.2.

For A37U U44A C95U C108A, the “polymerase ribozyme fitness (log ratio)” value was no more than -4.2.

On to A37G A52G C69A U144G, for which the “polymerase ribozyme fitness (log ratio)” value is -4.11.

Consider A37G C131U U134C, for which the “polymerase ribozyme fitness (log ratio)” value was -1.56.

In the case of C38A A39U C85G U111G U146A, the “polymerase ribozyme fitness (log ratio)” value is no more than -4.2.

Consider A37G G83A U104G G126A A150G, for which the “polymerase ribozyme fitness (log ratio)” value is no more than -4.2.

For the variant C38A A41C C54G U77G C93A A121C A122C, the “polymerase ribozyme fitness (log ratio)” value is no more than -4.2.

For the variant C38A C75G C76A C87G C105U A107U, the “polymerase ribozyme fitness (log ratio)” value was no more than -4.2.

On to A37U U45C G86A U104A A119U G124U, for which the “polymerase ribozyme fitness (log ratio)” value is no more than -4.2.

For the variant C38A G42C G59U A64C C85U A106U C125G, the “polymerase ribozyme fitness (log ratio)” value is no more than -4.2.

Take A37U A47G C87A C103U: the “polymerase ribozyme fitness (log ratio)” value was no more than -4.2.

As to A37U A39G A49U G81C A91C G94A U146A, the “polymerase ribozyme fitness (log ratio)” value was no more than -4.2.

Take A37C U55A C72U G88C A98G C103G U127C U134A: the “polymerase ribozyme fitness (log ratio)” value was no more than -4.2.

As to C38A G46A G92C C93A C96U G126C U130A, the “polymerase ribozyme fitness (log ratio)” value is no more than -4.2.

Regarding A37G G67A C79G, the “polymerase ribozyme fitness (log ratio)” value is no more than -4.2.

Consider A37G C79G A107C C125A C129A, for which the “polymerase ribozyme fitness (log ratio)” value was no more than -4.2.

For the variant A37C G48A A49C U78G G86A C87G C99U A142C U146G, the “polymerase ribozyme fitness (log ratio)” value is no more than -4.2.

For the variant A37U G42A C54G G86U, the “polymerase ribozyme fitness (log ratio)” value was no more than -4.2.

As for A37C G68A, the “polymerase ribozyme fitness (log ratio)” value is no more than -4.2.

Consider A37U G58A G62C C72U C79G G94A C123U G124A C131A, for which the “polymerase ribozyme fitness (log ratio)” value was no more than -4.2.

A37U C79U C116A: the “polymerase ribozyme fitness (log ratio)” value was -4.15.

In the case of C38A C95A U135A, the “polymerase ribozyme fitness (log ratio)” value is -1.76.

With A37U G86U A107C, the “polymerase ribozyme fitness (log ratio)” value is no more than -4.2.

As to A37C U53A U78A C85A G117U, the “polymerase ribozyme fitness (log ratio)” value was no more than -4.2.

On to A37U U53A C75G C85G, for which the “polymerase ribozyme fitness (log ratio)” value is no more than -4.2.

For A37U G48U U56A G86C A147C, the “polymerase ribozyme fitness (log ratio)” value is no more than -4.2.

As to A37U A47C A60U G80U A119U C125G, the “polymerase ribozyme fitness (log ratio)” value is no more than -4.2.

For the variant A37G A47G U101C, the “polymerase ribozyme fitness (log ratio)” value is -2.53.

Take A37C G50C A73U: the “polymerase ribozyme fitness (log ratio)” value is no more than -4.2.

Take A37U G50C A91U A106G U135G: the “polymerase ribozyme fitness (log ratio)” value was no more than -4.2.

For A37U U55A G94A C95G G140C, the “polymerase ribozyme fitness (log ratio)” value is no more than -4.2.

Regarding A37U C51U A97C, the “polymerase ribozyme fitness (log ratio)” value is -2.02.

Regarding A37U G42U U55A C75A G136A, the “polymerase ribozyme fitness (log ratio)” value is no more than -4.2.

For the variant C38A G70A C99G U144C, the “polymerase ribozyme fitness (log ratio)” value is no more than -4.2.

For the origin of these results see the RNAGym collection of RNA variant scans (doi:10.1073/pnas.2313332121).
